{"source": "PubChem BioAssay AID588855", "about": "(National Center for Advancing Translational Sciences (NCATS), 2011)", "note": "Hit rate of the full screen: of about 410,000 compounds, about 5,000 (1.2%) were called active. The shares of active, inactive and inconclusive entries below differ from those in the screen. The call rests on the fitted dose curve; in most records, active means well fitted inhibition curve with a large enough effect; inconclusive means small, poorly fitted or top-dose-only effect; inactive means no such curve, though single readings can be large or run the other way. Potencies of inconclusive entries are doubtful fits and often do not repeat. On the % scale 0 is the no-effect control and ±100 the full control effect; potency means the concentration at half of the fitted maximal effect; tags describe the fitted curve by direction and shape."}
{"assay": "qHTS for Inhibitors of TGF-b; further: nearly all actives have a fitted effect of over 65% in size", "conditions": "HepG2 CAGA-GFP TGF-b/SMAD3 reporter, GFP fluorescence, 18 h, TGF-beta stimulated, 500 pg/mL final; series mostly up to 46.1 µM; activity, negative = inhibition: at the top concentration", "procedure,_shortened": "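Cell-based qHTS in HEPG2 carrying a CAGA-GFP Smad reporter; compounds added before 500 pg/mL final TGF-beta, 18 h incubation at 37 degrees C, GFP fluorescence quantified per cell by imaging cytometry.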"}
{"smiles": "Cc1ccc2[nH]c3c(c2c1)CCCC3NC(=O)CCl", "note": "(stereo not given)", "Potency": "inconclusive: 25.1 µM [inhibitor, single point]"}
{"smiles": "Cc1noc(C)c1COC(=O)c1cc(C)n(-c2ccccc2)c1C", "activity, negative = inhibition": "inactive: 0.564%"}
{"smiles": "C/C=C(\\C)C(=O)NCCN1C2=NC[C@@H](Cc3ccccc3)N2C[C@@H]1Cc1ccc(OC)cc1", "Potency": "inconclusive: 0.891 µM [inhibitor, full curve]"}
{"smiles": "Cc1ccc(C(=O)N(Cc2ccco2)Cc2sccc2C)cc1", "Potency": "inconclusive: 0.1 µM [inhibitor, full curve, poor fit]"}
{"smiles": "COc1ccc(-c2nc3c(c(SCC(=O)Nc4cccc(O)c4)n2)Cc2c(CO)cnc(C)c2O3)cc1", "Potency": "inconclusive: 35.5 µM [inhibitor, single point]"}
{"smiles": "Cc1nc(CNC(=O)c2cc(COc3ccc(F)cc3Cl)on2)cs1", "activity, negative = inhibition": "inactive: 4.52%"}
{"smiles": "C[C@]12CC[C@H](O)CC1=CCC1C2CC[C@@]2(C)C1CC[C@@H]2NC(=O)[C@@H](N)Cc1ccccc1", "note": "(stereo not given in full)", "Potency": "inconclusive: 31.6 µM [inhibitor, single point]"}
{"smiles": "O=C(Nc1cc(Cl)ccc1Cl)c1cc(S(=O)(=O)NCCc2ccccc2)ccc1F", "Potency": "inconclusive: 35.5 µM [inhibitor, single point]"}
{"smiles": "Cc1cc(-c2ccccc2)n(-c2cc(N/N=C/c3ccccc3O)ncn2)n1", "Potency": "inconclusive: 22.4 µM [inhibitor, single point]"}
{"smiles": "CC1=C(CO)C(=O)OC([C@@H](C)C2CC[C@H]3C4C[C@H]5O[C@]56[C@@H](O)C=CC(=O)[C@]6(C)C4CC[C@]23C)C1", "note": "(stereo not given in full)", "Potency": "active: 2.82 µM"}
{"smiles": "N#CCCN(Cc1cccnc1)C(=O)c1sc2cc(F)ccc2c1Cl", "Potency": "inconclusive: 35.5 µM [inhibitor, single point]"}
{"smiles": "COC(=O)C1=C(C)N(Cc2ccccc2)C(=NCc2cccc(Cl)c2)N[C@H]1c1ccccc1", "Potency": "inconclusive: 25.1 µM [inhibitor, single point]"}
{"smiles": "CC(O)(c1ccc(F)c(F)c1)c1nc(-c2csc3ccccc23)cs1", "note": "(stereo not given)", "Potency": "inconclusive: 31.6 µM [inhibitor, single point]"}
{"smiles": "COc1ccc(CCNC(=O)Cc2c(C)c3cc4c(C(C)(C)C)coc4c(C)c3oc2=O)cc1OC", "activity, negative = inhibition": "inactive: -22.8%"}
{"smiles": "Cc1[nH]c2ccc(F)cc2c1CCN(Cc1cccnc1)C(=S)NC(C)(C)C", "Potency": "inconclusive: 5.62 µM [inhibitor, single point]"}
{"smiles": "CC(C)C(=O)N1CCN(c2ccccc2NC(=S)NC(=O)c2cccs2)CC1", "activity, negative = inhibition": "inactive: -6.41%"}
{"smiles": "CCN1CCN(Cc2ccc(NC(=O)c3cc(NC(=O)c4cncc(-c5ccc(C#N)cc5)c4)cc(OC)c3)cc2C(F)(F)F)CC1", "Potency": "active: 5.62 µM"}
{"smiles": "CCSc1nnc(NC(=O)c2ccc3ccccc3n2)s1", "Potency": "inconclusive: 25.1 µM [inhibitor, single point]"}
{"smiles": "CCc1cccc(NC(=O)CCCn2nc(C)c3c(C)n(-c4ccccc4)nc3c2=O)c1", "Potency": "inconclusive: 5.62 µM [inhibitor, single point]"}
{"smiles": "COC(=O)COc1ccc(C2C(C(=O)OC)=C(C)NC3=C2C(=O)c2ccccc23)cc1OC", "note": "(stereo not given)", "Potency": "inconclusive: 10 µM [inhibitor, partial curve]"}
{"smiles": "Cc1ccccc1Cn1c(CN2CCC(C(=O)NCc3cccnc3)CC2)cc2ccccc21", "Potency": "active: 15.8 µM"}
{"smiles": "CCOC(=O)C1CCN(C(=O)Cn2nc(C)n3c(cc4sccc43)c2=O)CC1", "Potency": "inconclusive: 7.94 µM [inhibitor, partial curve, poor fit]"}
{"smiles": "CCCOc1ccc(C(C)(O)CN2CCOCC2)cc1", "note": "(stereo not given)", "activity, negative = inhibition": "inactive: 14.7%"}
{"smiles": "O=C(Nc1ccc(O)cc1)c1ccccc1OCc1ccccc1", "Potency": "inconclusive: 35.5 µM [inhibitor, single point]"}
{"smiles": "N=c1sccn1CC(=O)Nc1cccc(Oc2ccccc2)c1", "Potency": "inconclusive: 22.4 µM [inhibitor, single point]"}
{"smiles": "CN(C)/N=C/c1ccc(OS(=O)(=O)c2ccccc2)cc1", "Potency": "inconclusive: 2.82 µM [inhibitor, full curve, poor fit]"}
{"smiles": "O=C(O)C1CC(=O)N(CCc2c[nH]c3ccccc23)C1", "note": "(stereo not given)", "Potency": "inconclusive: 12.6 µM [inhibitor, single point]"}
{"smiles": "CCOC(=O)N1CCC(NC(=O)Cn2cccc2C(=O)c2ccccc2C)CC1", "Potency": "inconclusive: 14.1 µM [inhibitor, single point]"}
{"smiles": "O=C(NCCCSc1ccccc1)c1cc(Cl)ccc1O", "Potency": "inconclusive: 35.5 µM [inhibitor, single point]"}
{"smiles": "C/C=C/C=C/C(=O)N1CC[C@]23c4ccccc4N[C@H]4N(C)c5cccc6c5[C@]42CCN([C@H]6C2OC2(C)C)[C@H]13", "note": "(stereo not given in full)", "Potency": "inconclusive: 35.5 µM [inhibitor, single point]"}
{"smiles": "O=C(Nc1nc(NC(=O)c2ccco2)n(-c2ccccc2)n1)c1ccccc1", "Potency": "inconclusive: 22.4 µM [inhibitor, single point]"}
{"smiles": "NC(N)=Nc1ccc(/C=C2\\C=Cc3ccccc32)cc1", "Potency": "active: 15.8 µM"}
{"smiles": "Cc1cc2ncn(/N=C/c3ccc(-c4ccccc4)o3)c2cc1C", "Potency": "inconclusive: 35.5 µM [inhibitor, single point]"}
{"smiles": "COc1ccc(-c2csc(N(CCCN(C)C)C(=O)c3ccc(C)cc3)n2)cc1", "Potency": "inconclusive: 35.5 µM [inhibitor, single point]"}
{"smiles": "N#C/C(=N\\Nc1cccc(C(F)(F)F)c1)C(=O)c1csc(-c2cccnc2)n1", "Potency": "inconclusive: 28.2 µM [inhibitor, single point]"}
{"smiles": "CCc1nc2c(OCc3ccc(Cl)cc3)cccn2c1N(C)C(=O)c1ccco1", "Potency": "inconclusive: 22.4 µM [inhibitor, single point]"}
{"smiles": "CC(=O)O[C@H]1CC[C@H]2[C@@H]3CCc4cc(O)ccc4[C@H]3CC[C@]12C", "Potency": "inconclusive: 15.8 µM [inhibitor, single point]"}
{"smiles": "O=C(/C=C/c1ccco1)Nc1ccccc1N1CCCCC1", "Potency": "inconclusive: 20 µM [inhibitor, single point]"}
{"smiles": "CNc1ccc(Cl)cc1S(=O)(=O)c1ccccc1[N+](=O)[O-]", "Potency": "inconclusive: 12.6 µM [inhibitor, partial curve, poor fit]"}
{"smiles": "O=C(COC(=O)c1c(Cl)ccc(Cl)c1Cl)NC(=O)NCc1ccccc1", "Potency": "inconclusive: 11.2 µM [inhibitor, single point]"}
{"smiles": "CC(=O)c1cccc(NC(=O)CN2C(=O)c3ccccc3Sc3ncccc32)c1", "activity, negative = inhibition": "inactive: -11.9%"}
{"smiles": "COc1ccc(-n2nc3c(N4CCC(C(=O)NCc5cccc(F)c5)CC4)nnc(C)c3c2C)cc1", "Potency": "active: 10 µM"}
{"smiles": "Cc1ccc(C(=O)c2ccc(O)cc2)cc1C", "activity, negative = inhibition": "inactive: -10.9%"}
{"smiles": "Cc1ccc(-c2nc3ccccc3[nH]2)cc1NC(=O)COc1ccccc1[N+](=O)[O-]", "Potency": "active: 11.2 µM"}
{"smiles": "O=C(c1cnn(-c2cccc(F)c2)c1-n1cccc1)N1CCN(c2ccccc2F)CC1", "activity, negative = inhibition": "inactive: -64.7%"}
{"smiles": "CCCOc1ccc(/C=N/O)cc1", "activity, negative = inhibition": "inactive: -0.212%"}
{"smiles": "COc1cccc(Cc2nc3ccccc3nc2SCC(=O)NCCc2ccccc2)c1", "Potency": "inconclusive: 11.2 µM [inhibitor, partial curve, poor fit]"}
{"smiles": "CC(C)Cc1ccc(-c2cc3nc(NCCOc4ccccc4)ccn3n2)cc1", "Potency": "inconclusive: 35.5 µM [inhibitor, single point]"}
{"smiles": "COc1ccc(-c2nc(C#N)c(NCc3ccco3)o2)cc1", "activity, negative = inhibition": "inactive: -8.41%"}
{"smiles": "COc1ccc(S(=O)(=O)N2CCC(NC(=O)C3CCCCC3)CC2)cc1", "Potency": "inconclusive: 0.112 µM [inhibitor, full curve, poor fit]"}
{"smiles": "COc1cc(C)cc(C(=O)C=Cc2ccccc2)c1O", "Potency": "inconclusive: 20 µM [inhibitor, single point]"}
{"smiles": "O=C(C[n+]1cccc2ccccc21)c1ccc(F)cc1", "Potency": "inconclusive: 3.55 µM [inhibitor, single point]"}
{"smiles": "COc1ccc(C2C=C(c3ccc(F)cc3)Nc3nc(-c4ccc(Cl)cc4)nn32)cc1", "note": "(stereo not given)", "Potency": "inconclusive: 28.2 µM [inhibitor, single point]"}
{"smiles": "COC(=O)CCC(=O)OC1(C)C(=O)C2=CN(c3ccccc3)C(c3ccc(OC)cc3)=CC2=C(Br)C1=O", "note": "(stereo not given)", "activity, negative = inhibition": "inactive: -7.75%"}
{"smiles": "Cc1ccc(C(CCN(Cc2ccccc2)C(=O)c2ccco2)c2ccco2)cc1", "note": "(stereo not given)", "Potency": "inconclusive: 35.5 µM [inhibitor, single point]"}
{"smiles": "N#CC1=C(N)OC2=C(CCc3ccccc32)C1c1ccccc1", "note": "(stereo not given)", "Potency": "inconclusive: 7.08 µM [inhibitor, partial curve]"}
{"smiles": "c1ccc(-c2cc3c(N4CCOCC4)ncnc3s2)cc1", "activity, negative = inhibition": "inactive: 3.81%"}
{"smiles": "CCn1cc([N+](=O)[O-])c(C(=O)Nc2cc(C)on2)n1", "Potency": "inconclusive: 35.5 µM [inhibitor, single point]"}
{"smiles": "COc1ccc(NS(=O)(=O)c2cccc(N/C(=N\\S(=O)(=O)c3ccccc3)c3ccc(F)cc3)c2)cc1", "Potency": "inconclusive: 35.5 µM [inhibitor, single point]"}
{"smiles": "CC(C)[C@@H](CO)NC(=O)c1ccc2c3n(nc2c1)-c1ccccc1CO3", "activity, negative = inhibition": "inactive: 7.79%"}
{"smiles": "C[C@H](CO)N1C[C@H](C)[C@@H](CN(C)Cc2ccncc2)Oc2c(NC(=O)c3ccncc3)cccc2C1=O", "Potency": "inconclusive: 0.355 µM [inhibitor, full curve, poor fit]"}
{"smiles": "COC(=O)Nc1ccc2ncn(C)c(=O)c2c1", "Potency": "inconclusive: 35.5 µM [inhibitor, single point]"}
{"smiles": "O=C(Nc1ccccc1C(=O)N1CCCCC1)c1cc(F)c(F)cc1Cl", "Potency": "inconclusive: 1.26 µM [inhibitor, full curve, poor fit]"}
{"smiles": "CS(=O)(=O)N1CCc2cc(-c3csc(NC(=O)Cc4cccs4)n3)ccc21", "Potency": "inconclusive: 17.8 µM [inhibitor, partial curve, poor fit]"}
{"smiles": "Nc1ncccc1OCc1ccc(Br)cc1", "Potency": "inconclusive: 35.5 µM [inhibitor, single point]"}
